Where a chain is given by its changes, count along the chain named. This is one part of the list.
B1: UAAUGUU (DNA:RNA)
RNA: GGGAGACCGGAAUUCAGAUUGUCCUAAUGUUUUAAAUCCCGUCGUAGCCACCA
DNA 1: CAATCTGAATTCCGGTCTCCC
DNA 2: TGGTGGCTACGACGGGATT
B2: UUUCCCU (DNA:RNA)
RNA: B1 RNA with A26U, A27U, U28C, G29C, U30C
DNA 1: CAATCTGAATTCCGGTCTCCC
DNA 2: TGGTGGCTACGACGGGATT
B3: CGUGCGC (DNA:RNA)
RNA: GGGAGACCGGAAUUCAGAUUGUCCCGUGCGCUUAAAUCCCGUCGUAGCCACCA
DNA 1: CAATCTGAATTCCGGTCTCCC
DNA 2: TGGTGGCTACGACGGGATT
B4: CAGACCA (DNA:RNA)
RNA: B3 RNA with G26A, U27G, G28A, G30C, C31A
DNA 1: CAATCTGAATTCCGGTCTCCC
DNA 2: TGGTGGCTACGACGGGATT
B5: UAGUGGU (DNA:RNA)
RNA: B1 RNA with A27G, U30G
DNA 1: CAATCTGAATTCCGGTCTCCC
DNA 2: TGGTGGCTACGACGGGATT
B6: GUACUAA (DNA:RNA)
RNA: B1 RNA with U25G, A26U, U28C, G29U, U30A, U31A
DNA 1: CAATCTGAATTCCGGTCTCCC
DNA 2: TGGTGGCTACGACGGGATT
B7: ACAUUGA (DNA:RNA)
RNA: B1 RNA with U25A, A26C, G29U, U30G, U31A
DNA 1: CAATCTGAATTCCGGTCTCCC
DNA 2: TGGTGGCTACGACGGGATT
B8: AGGGCAC (DNA:RNA)
RNA: B3 RNA with C25A, U27G, G30A
DNA 1: CAATCTGAATTCCGGTCTCCC
DNA 2: TGGTGGCTACGACGGGATT
B9: GAUGGAC (DNA:RNA)
RNA: B3 RNA with C25G, G26A, C29G, G30A
DNA 1: CAATCTGAATTCCGGTCTCCC
DNA 2: TGGTGGCTACGACGGGATT
B10: UUAGUUU (DNA:RNA)
RNA: B1 RNA with A26U, U28G, G29U
DNA 1: CAATCTGAATTCCGGTCTCCC
DNA 2: TGGTGGCTACGACGGGATT
B11: GAGACAA (DNA:RNA)
RNA: B3 RNA with C25G, G26A, U27G, G28A, G30A, C31A
DNA 1: CAATCTGAATTCCGGTCTCCC
DNA 2: TGGTGGCTACGACGGGATT
B12: GUCAUGC (DNA:RNA)
RNA: B3 RNA with C25G, G26U, U27C, G28A, C29U
DNA 1: CAATCTGAATTCCGGTCTCCC
DNA 2: TGGTGGCTACGACGGGATT
B13: GGUAUAC (DNA:RNA)
RNA: B3 RNA with C25G, G28A, C29U, G30A
DNA 1: CAATCTGAATTCCGGTCTCCC
DNA 2: TGGTGGCTACGACGGGATT
B14: CGGAAGU (DNA:RNA)
RNA: B3 RNA with U27G, G28A, C29A, C31U
DNA 1: CAATCTGAATTCCGGTCTCCC
DNA 2: TGGTGGCTACGACGGGATT
B15: GAAUGCA (DNA:RNA)
RNA: B1 RNA with U25G, U30C, U31A
DNA 1: CAATCTGAATTCCGGTCTCCC
DNA 2: TGGTGGCTACGACGGGATT
B16: UGGACAA (DNA:RNA)
RNA: B3 RNA with C25U, U27G, G28A, G30A, C31A
DNA 1: CAATCTGAATTCCGGTCTCCC
DNA 2: TGGTGGCTACGACGGGATT
B17: UCGAGCC (DNA:RNA)
RNA: B1 RNA with A26C, A27G, U28A, U30C, U31C
DNA 1: CAATCTGAATTCCGGTCTCCC
DNA 2: TGGTGGCTACGACGGGATT
B18: GAGGUAA (DNA:RNA)
RNA: B3 RNA with C25G, G26A, U27G, C29U, G30A, C31A
DNA 1: CAATCTGAATTCCGGTCTCCC
DNA 2: TGGTGGCTACGACGGGATT
B19: CUCUAAA (DNA:RNA)
RNA: B3 RNA with G26U, U27C, G28U, C29A, G30A, C31A
DNA 1: CAATCTGAATTCCGGTCTCCC
DNA 2: TGGTGGCTACGACGGGATT
B20: UGGUUUC (DNA:RNA)
RNA: B1 RNA with A26G, A27G, G29U, U31C
DNA 1: CAATCTGAATTCCGGTCTCCC
DNA 2: TGGTGGCTACGACGGGATT

molecular target: T1, RBFOX1 RRM (Homo sapiens, UniProt Q9NWB1 109-208); experiment: EMSA; HiTS-Eq, 1 nM pool, 10 min; buffer printed only for the single-RNA assays: 10 mM Tris pH 7.5, 150 mM NaCl, 3.4 mM EDTA, 0.001% NP-40, 30 C; conditions: tags: His6 N-terminal (pET28a); label: 5' 32P
T1 sequence: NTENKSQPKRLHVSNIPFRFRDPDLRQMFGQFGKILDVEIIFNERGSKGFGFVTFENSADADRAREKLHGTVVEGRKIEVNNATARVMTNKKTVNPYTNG
In short: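 These values rest on relative association constants, computed from read-count changes of each RNA species versus the control reaction and normalised to the cognate motif. Reads came from free RNA recovered by 8% native PAGE after purified RbFox RRM (wild type or mutant) at increasing concentrations was equilibrated for 10 min in 50 µL with 1 nM of a 5′-radiolabelled pool with 7 randomized nucleotides and DNA-annealed flanks.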

Point of comparison: B18, binding signal 0.0148 KA relative to UGCAUGU. Against it:
- B1 — lower, 0.0139 KA relative to UGCAUGU
- B2 — lower, 0.00784 KA relative to UGCAUGU
- B3 — higher, 0.0168 KA relative to UGCAUGU
- B4 — lower, 0.000472 KA relative to UGCAUGU
- B5 — lower, 0.0124 KA relative to UGCAUGU
- B6 — lower, 0.00437 KA relative to UGCAUGU
- B7 — lower, 0.00616 KA relative to UGCAUGU
- B8 — higher, 0.0192 KA relative to UGCAUGU
- B9 — lower, 0.00792 KA relative to UGCAUGU
- B10 — lower, 0.0101 KA relative to UGCAUGU
- B11 — lower, 0.00474 KA relative to UGCAUGU
- B12 — lower, 0.0144 KA relative to UGCAUGU
- B13 — lower, 0.0108 KA relative to UGCAUGU
- B14 — higher, 0.0236 KA relative to UGCAUGU
- B15 — higher, 0.0187 KA relative to UGCAUGU
- B16 — lower, 0.0145 KA relative to UGCAUGU
- B17 — lower, 0.00744 KA relative to UGCAUGU
- B19 — lower, 0.00104 KA relative to UGCAUGU
- B20 — higher, 0.0304 KA relative to UGCAUGU

— paper PMC9911399, “Two distinct binding modes provide the RNA-binding protein RbFox with extraordinary sequence specificity”
